According to PMC4274898:
These are yes or no findings as the source states them, for the method shown. Some binding calls cover weakened binding; strength is not graded here.

Chains of the proteins cited; added tags and fusions are not shown.
UniProt Q38825: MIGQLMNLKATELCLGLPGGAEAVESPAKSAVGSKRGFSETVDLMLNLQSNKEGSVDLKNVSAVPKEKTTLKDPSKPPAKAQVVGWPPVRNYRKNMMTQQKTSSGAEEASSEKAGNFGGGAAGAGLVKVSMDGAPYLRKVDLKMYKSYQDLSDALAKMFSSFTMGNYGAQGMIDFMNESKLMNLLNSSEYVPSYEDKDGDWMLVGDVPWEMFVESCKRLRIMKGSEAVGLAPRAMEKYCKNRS
UniProt P93830: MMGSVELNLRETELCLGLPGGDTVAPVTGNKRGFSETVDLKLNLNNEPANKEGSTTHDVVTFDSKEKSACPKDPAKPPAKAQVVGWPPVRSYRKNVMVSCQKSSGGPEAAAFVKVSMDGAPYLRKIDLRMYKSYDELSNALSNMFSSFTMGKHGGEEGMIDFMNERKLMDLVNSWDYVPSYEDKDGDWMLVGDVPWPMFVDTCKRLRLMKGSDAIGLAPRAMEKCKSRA
UniProt Q38832: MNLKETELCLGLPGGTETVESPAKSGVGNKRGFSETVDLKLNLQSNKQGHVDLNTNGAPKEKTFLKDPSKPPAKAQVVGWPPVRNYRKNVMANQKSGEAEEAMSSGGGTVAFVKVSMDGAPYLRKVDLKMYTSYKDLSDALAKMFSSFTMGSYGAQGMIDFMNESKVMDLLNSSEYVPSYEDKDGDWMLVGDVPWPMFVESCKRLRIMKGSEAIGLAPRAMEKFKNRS

Experiments:
Test in all cases: two-hybrid; S. cerevisiae AH109 co-transformed with pGBKT7-ARF (bait) and pGADT7-Aux/IAA (prey); growth on SD/-Ade-His-Leu-Trp against SD/-Leu/-Trp; at least 10 independent colonies; serial dilutions for strength
[1] = target: T1, ARF8 (Arabidopsis thaliana) (UniProt Q9FGV1)
T1 sequence: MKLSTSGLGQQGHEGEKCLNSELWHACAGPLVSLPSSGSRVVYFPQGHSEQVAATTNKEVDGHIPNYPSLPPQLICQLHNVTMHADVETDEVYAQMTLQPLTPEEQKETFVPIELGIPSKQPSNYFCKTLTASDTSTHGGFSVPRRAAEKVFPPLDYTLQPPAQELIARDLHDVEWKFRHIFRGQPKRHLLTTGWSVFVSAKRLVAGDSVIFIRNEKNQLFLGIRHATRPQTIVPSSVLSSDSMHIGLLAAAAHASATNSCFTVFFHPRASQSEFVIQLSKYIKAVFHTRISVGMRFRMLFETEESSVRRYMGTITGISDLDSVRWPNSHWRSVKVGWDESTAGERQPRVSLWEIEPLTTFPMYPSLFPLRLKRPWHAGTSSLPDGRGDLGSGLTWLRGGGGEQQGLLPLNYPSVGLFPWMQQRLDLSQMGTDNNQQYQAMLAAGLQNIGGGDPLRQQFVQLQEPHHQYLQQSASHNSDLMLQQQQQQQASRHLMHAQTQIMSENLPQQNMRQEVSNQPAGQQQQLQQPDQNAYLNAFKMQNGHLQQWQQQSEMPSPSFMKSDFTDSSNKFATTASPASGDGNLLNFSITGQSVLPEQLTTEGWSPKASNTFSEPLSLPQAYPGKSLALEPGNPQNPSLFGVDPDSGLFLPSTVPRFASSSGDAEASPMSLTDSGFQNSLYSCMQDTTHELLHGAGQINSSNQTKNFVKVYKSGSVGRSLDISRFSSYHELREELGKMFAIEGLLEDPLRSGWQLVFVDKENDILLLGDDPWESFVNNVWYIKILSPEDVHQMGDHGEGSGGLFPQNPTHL

[2] = target: T2, ARF5 (Arabidopsis thaliana) (UniProt P93024)
T2 sequence: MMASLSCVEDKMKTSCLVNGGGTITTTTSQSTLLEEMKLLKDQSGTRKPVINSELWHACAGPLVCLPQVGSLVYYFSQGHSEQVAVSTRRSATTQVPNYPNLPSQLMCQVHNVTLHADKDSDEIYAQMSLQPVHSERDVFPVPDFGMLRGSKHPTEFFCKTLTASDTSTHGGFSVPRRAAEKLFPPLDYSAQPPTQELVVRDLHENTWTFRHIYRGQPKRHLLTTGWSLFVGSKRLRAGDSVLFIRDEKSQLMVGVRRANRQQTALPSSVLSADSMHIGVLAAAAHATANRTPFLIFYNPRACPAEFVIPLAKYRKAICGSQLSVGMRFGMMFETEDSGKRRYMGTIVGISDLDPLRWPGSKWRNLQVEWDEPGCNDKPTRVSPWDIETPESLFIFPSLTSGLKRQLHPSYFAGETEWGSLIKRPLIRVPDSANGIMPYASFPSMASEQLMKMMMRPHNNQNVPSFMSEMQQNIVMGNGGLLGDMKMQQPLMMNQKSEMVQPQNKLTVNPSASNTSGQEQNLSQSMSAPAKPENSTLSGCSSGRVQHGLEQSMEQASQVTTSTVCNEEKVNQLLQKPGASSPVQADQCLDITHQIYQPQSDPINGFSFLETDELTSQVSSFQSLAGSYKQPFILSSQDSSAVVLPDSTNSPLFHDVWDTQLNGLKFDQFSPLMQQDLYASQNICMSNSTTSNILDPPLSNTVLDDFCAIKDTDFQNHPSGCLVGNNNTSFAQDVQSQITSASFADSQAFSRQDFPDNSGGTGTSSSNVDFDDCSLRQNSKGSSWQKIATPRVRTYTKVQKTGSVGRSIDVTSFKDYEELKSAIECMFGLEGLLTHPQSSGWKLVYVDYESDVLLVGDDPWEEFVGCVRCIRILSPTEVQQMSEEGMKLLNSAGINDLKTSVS

[3] = target: T3, ARF4 (Arabidopsis thaliana) (UniProt Q9ZTX9)
T3 sequence: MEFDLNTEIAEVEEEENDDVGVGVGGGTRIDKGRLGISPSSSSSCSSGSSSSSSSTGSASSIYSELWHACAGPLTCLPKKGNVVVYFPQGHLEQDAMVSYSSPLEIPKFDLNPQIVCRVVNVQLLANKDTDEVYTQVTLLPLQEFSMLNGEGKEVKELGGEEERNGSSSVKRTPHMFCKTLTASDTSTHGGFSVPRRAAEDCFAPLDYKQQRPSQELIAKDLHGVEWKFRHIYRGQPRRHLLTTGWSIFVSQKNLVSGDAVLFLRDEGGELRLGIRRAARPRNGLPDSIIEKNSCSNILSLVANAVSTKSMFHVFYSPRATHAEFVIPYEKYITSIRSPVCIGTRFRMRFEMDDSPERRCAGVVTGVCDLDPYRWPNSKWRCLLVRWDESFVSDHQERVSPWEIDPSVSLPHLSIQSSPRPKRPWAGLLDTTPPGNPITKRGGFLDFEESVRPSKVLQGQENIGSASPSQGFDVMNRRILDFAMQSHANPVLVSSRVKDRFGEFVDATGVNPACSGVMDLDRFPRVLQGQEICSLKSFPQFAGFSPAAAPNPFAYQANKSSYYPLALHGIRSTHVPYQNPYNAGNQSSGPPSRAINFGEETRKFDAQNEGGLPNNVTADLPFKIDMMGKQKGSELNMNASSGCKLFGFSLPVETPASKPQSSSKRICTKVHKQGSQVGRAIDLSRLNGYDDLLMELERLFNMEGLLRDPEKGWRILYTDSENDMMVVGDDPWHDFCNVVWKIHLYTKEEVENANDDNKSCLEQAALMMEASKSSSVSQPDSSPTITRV

binding [1]	binding [2]	binding [3]	Substance
binds	binds	binds	Aux/IAA7 (from UniProt Q38825 1-243)
binds	binds	binds	Aux/IAA17 (from UniProt P93830 1-229)
binds	binds	binds	Aux/IAA14 (from UniProt Q38832 1-228)
